# Laboratory results taken from the RNAGym collection of RNA variant scans (doi:10.7554/elife.90254).
# The source gives no read counts; variants with many changes may rest on few reads.
# B1: LINE1-full (parent)
# chain: UACGUAGGUGGUUUUCCCCUGAUAGUGCUAAGGGGGCCUGGAAGUUUGGACUGGGCAGAGCUCAACACAGCGUGGCAAAGUGGCUGUGGCUAGACUGCCUCUCUGGAUUCCUCGUCACUCAGCAGGGCAUCUCUGAGAGAAAUGCC
# Variants of: B1
# Experiment: self-cleavage, relative activity (ratio to wild type); higher = more cleavage; in vitro, sequencing; the parent is a self-cleaving ribozyme
row,Variant,self-cleavage
1,UACGUAGGUGGUUUUCCCCUGAUAGUGCUUAGGGGGCCUGGAAGUUUGGGCUGGGCAGAGCUCAACACAGCGUGGCAAAGUGGCUGUGGCUAGACAGCCUCUCUGGAUUCCUCGUCACUCAGCAGGGCAUCUCUGGGAGAAAUGCC,0
2,UACGUAGGUGGUUUUCCCCUGAUAGUGCUAAAGGGGCCUGGAAGUUUGGACUGGGCAGAGCUCAACACAGCGUGGCAAAGUGGCUGUGGCUAGACUGCCUCUCUGGAUUCCUCGACACUCAGCAGGGCGUCUCUGAGAGAAAUGCC,0.8
3,UACGUAGGUGGCUUUCCCCGGAUAGUGCUAAGGGGGCCUGGAAGCUUGGACUGGGCAGAGCUCAACACAGCGUGGCAAAGAGGCUGUGGCUAGACUGCCUCUCUGGAUUCCUCGUCACUCAGCAGGGCAUCUCUGAGAGAAAUGCC,1.5
4,UACGUAGAUGGUUUUCCCCUGAUAGUGCUAAGGGGGCCUGGAAGUUUGGACUGGGCAGAGCUCAACACAGCGUGGCAAAGUGGCUGUGGCUAGACUGCCUCUCCGGAUUCCUCGUCACUCAGCAGGGCAUCUCUGAGAGAUAUGCC,1.59
5,UACGUAGCUGGUUUUCCCCUGAUAGUGCUAAGGGGGCCAGGAAGUUUGGACUGGGCAGAGCUCAACACAGCGUGGCAAAGUGGCUGUGGCUAGACUGCCUCUCUGGAUUCCCCGUCACUCAGCAGAGCAUCUCUGAGAGAAAUGCC,1.7
6,UACGUAGGUGGUUUUCCCCUGAUAGUGCUAAGGGGGCCUGGAAGUUUGGACUGGGCAGAGCUCAACACAGCGUGGCAAAGUGGCUGUGGCUAGACUGCCUCUCUGGAUUCCUCGUCCCUCACCAGGGCACCUCUGAGAGAAAUGCC,1.77
7,UACCUAGGUGGUUUUCCCCUGAUAGUGCUAAGGGGGCCAGGAAGUUUGGACCGGGCAGAGCUCAACACAGCGUGGCAAAGUGGCUGUGGCUAGACUGCCUCUCUGGAUUCCUCGUCACUCAGCAGGGCAUCUCUGAGAGAAAUGCC,1.38
8,UACGUAGGUGGCCUUCCCCUGAUAGUGCUAAGGGGGCCUGGAAGUUAGGACUGGGCAGAGCUCAACACAGCGUGGCAGAGUGGCUGUGGCUAGACUGCCUCUCUGGAUUCCUCGUCACUCAGCAGGGCGUCUCUGAGAGAAAUGCC,1.16
9,UACGUAGGUGGUUUUCCCCUGAUAGUGCUAAGGAGGCCUGGAAGUUUGGACUGGGCAGAGCUCAACACAGCGUGGCAAAGUGGCUGUGGCUAGACUGCCUCCCUGGAUUCCUCGUCACUCAGCAGGGCAUCCCUGAGAGAAAUGCC,1.53
10,UACGUAGGUGGUUUUCCCCUGAUAGUGCAAGGGGGGCCAGGAAGUUUGGACUGGGCAGAGCUCAACACAGCGUGGCAAAGUGGCUGUGGCUAGACUGCCUCUCUGGAUUCCUCGUCACUCAGCAGGGCAUCUCUGAGAGAAAUGCC,0.51
11,UACGUAGGUGGUUUUCCCCUGAUAGUGCUAAGGGGGCCUGGAAGUUUGGACUGGCCAGAGCUCAACACAGCGUGGCAGAGUGGCUGUGGCUAGACUGCCUCUCUGGAUUCCUCGUCACUCAGCAGGGCAUCUCGGAGAGAAAUGCC,0.12
12,UACGUAGGUGGUUUUCCCCUGAUAGUGCUAAGGGGGCCUGGAAGUUUGGACUGGGUUGAGCUCGACACAGCGUGGCAAAGUGGCUGUGGCUAGACUGCCCCUCUGGAUUCCUCGUCACUCAGCAGGGCAUCUCUGAGAGAAAUGCC,0.21
13,UACGUAGGUGGUUUUCCCCUGAUAGUGCUAAGGGGGCCUGGAAGUUUGGACUGGGCAGAGCUCAACAUAGCGUGGCAAAGUGGCUGUGGCUAGACUGCCUCUCUGGAUUCCCCGUCACUCAGCAGGGUAUCUCUGAGAGAAAUGCC,0.13
14,UACGUAGGUGGUUUUCCCCUGAUAGUGCUAAGGGGGCCUGGAAGUUUGGACUGGGCAGAGCUCAACACAGCGUGGCAAAGUGGCAGUGGCUAGGCUGCCUCUCUGGAUUCCUCGUCACUCGGCAGGGCACCUCUGAGGGAAAUGCC,0
15,UACGUAGGUGGUUUUCCCCUGAUAGUGCUAAGGGGGCCUGGAAGUUUGGACUGGGCAGAGCUCAACACUGCGUGGCAAAGUGGCUGUGGCUAGACAGCCCCUCUGGAUUCCUCGUCACUCAGCAGGGCAUCUCUGAGAGAAUUGCC,0.04
16,UACGUAGGUGGUUUUCCACUGAUAGUGCUAAGGGGGCCUGGAAGUUUGGACUGGGCAGAGCUCAACACAGCGUGGCAAAGUGGCUGUGGCUAGACUGCCUCUCCGGAUUCCUCGUCACUCAGCAGGGCACCUCUGAGAGAAAUGCC,0.81
17,UACGUAGGUGGUUUUCCCCUGAUAGUGCUAAGGGGGCCUGGAAGUUCGGACUGGGCUGAGCUCAACACAGCGUGGCAAAGUGGCUGUGGCUAGACUGCCUCUCUGGAUUCCUCGUCACUCAGCAGGGCAUCUCUGAGGGAAAUGCC,0.29
18,UACGUAGGUGGUUUUCCCCUGAUAGUGCUAAGGGGGCCUGGAAGUUUGAACUGGGCAGAGCUUAACACAGCGUGGCAAAGUGGCUGUGGCUAGACUGUCUCUCUGGAUUCCUCGUCACUCAGCAGGGCAUCUCUGAGAGAAAUGCC,0.1
19,UACGUAGGUGGUUUUCCCCUGAUAGUGCUAAGGGGGCCUGGAAGUUAGGACUGGGCAGAGCUCCACACAGCGUGGCAAAGUGGCUGUGGCUAAACUGCCUCUCUGGAUUCCUCGUCACUCAGCAGGGCAUCUCUGGGAGAAAUGCC,0.06
20,UACGUAGGUGGUUCUCCCCUGAUAGUGCUAAGGGGGCCUGGAAGUUUGGACUGGGCAGAGCUCAACACAGCGUGGCUAAGUGGCUGUGGCUAGACUGCCUCUCUGGAUUCCUCGUCACUCAGCAGGGCAUCUCUGGGAGAAAUGCU,1.06
